Results from the supplement of paper PMC9135407.
Where “and” joins values, the source holds several entries; their conditions need not be identical. Equal entries are not always repeated. Structures can show the parent of a compound that is named as a salt. The whole screen tested about 5,800 compounds, of which about 620 (11%) showed activity.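 The calls were made as follows: active = score above a cut-off or among the top three wells of a plate; in these data no inactive exceeds 0.85.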 Only a part is listed here, and it is no random draw.

System: primary human hepatic stellate cells (donor 1)
Assay: scaled lipid accumulation score (0 = DMSO-like, 1 = nortriptyline-like); higher = stronger HSC inactivation (lipid re-accumulation), active = hit call of the paper
Details: 48 h
Description: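 Primary lipid accumulation screen in primary human hepatic stellate cell myofibroblasts (donor 1, passage 8) in 384-well plates. 100 nL of library compound was pin-transferred into 30 µL medium in duplicate, and cells were treated for 48 h. The 'Scaled' score combines distance from plate baseline, toxicity and reproducibility penalties, and is normalised to nortriptyline (positive) and DMSO (negative) controls on each plate. A hit is defined as scaled >0.85 or among the top 3 wells per plate.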

[1] = library stock concentration: 1 mM
[2] = library stock concentration: 10 mM
[3] = library stock concentration: 3.33 mM
[4] = library stock concentration: 5.3 mM
[5] = library stock concentration: 80 uM
[6] = library stock concentration: 400 uM
[7] = library stock concentration: 2 mM

SMILES: COC(=O)[C@H](Cc1ccccc1)NC(=O)/C=C/c1ccc(O)cc1
- scaled lipid accumulation score [1]: inactive: 0.011

SMILES: CN(C)CC/C=C1\c2ccccc2CSc2ccccc21 [Dosulepin hydrochloride]
- scaled lipid accumulation score: inactive: 0.845

SMILES: CC(=O)NO [Acetohydroxamic acid]
- scaled lipid accumulation score [2]: inactive: ≤ 0

SMILES: O=NO [Sodium Nitrite]
- scaled lipid accumulation score [3]: inactive: ≤ 0
- scaled lipid accumulation score [2]: inactive: ≤ -0.001

SMILES: CC(C)(Oc1ccc(Cl)cc1)C(=O)O [Clofibric Acid]
- scaled lipid accumulation score [3]: inactive: ≤ 0
- scaled lipid accumulation score [2]: inactive: ≤ -0.001

SMILES: CC(C)(Oc1ccc(Cl)cc1)C(=O)O [Clofibric acid]
- scaled lipid accumulation score: inactive: ≤ 0
- scaled lipid accumulation score [2]: inactive: ≤ 0

SMILES: CN1CCCN=C1COC(=O)C(O)(c1ccccc1)C1CCCCC1 (stereo unspecified) [Oxyphencyclimine hydrochloride]
- scaled lipid accumulation score [4]: inactive: ≤ 0
- scaled lipid accumulation score [2]: inactive: 0.458

SMILES: CCCCc1c(-c2ccc(OC)cc2)[nH]c2nccnc12 [Aloisine, RP106]
- scaled lipid accumulation score [3]: inactive: 0.036

SMILES: CC(=O)c1cnc2ccc(-c3cc(Cl)c(O)c(Cl)c3)nc2c1N[C@H]1CC[C@H](CN(C)C)CC1.Cl
- scaled lipid accumulation score [2]: active: 0.872

SMILES: COc1cc2ncc(-c3ccccc3)nc2cc1OC [Tyrphostin AG 1296]
- scaled lipid accumulation score [3]: inactive: ≤ -0.009
- scaled lipid accumulation score [2]: inactive: ≤ 0

SMILES: COc1cc2ncc(-c3ccccc3)nc2cc1OC
- scaled lipid accumulation score [3]: inactive: ≤ 0
- scaled lipid accumulation score (library stock concentration: 18.8 mM): inactive: 0.096

SMILES: CCC[C@H](Nc1nc(-c2ccc(NC(=O)NCC)c(OC)c2)ncc1C)c1cccnc1 [CYT997 (Lexibulin)]
- scaled lipid accumulation score [3]: inactive: 0.682
- scaled lipid accumulation score [2]: inactive: 0.758

SMILES: COC1C(O)CC(=O)OC(C)CC=CC=CC(OC2CCC(N(C)C)C(C)O2)C(C)CC(CC=O)C1OC1OC(C)C(OC2CC(C)(O)C(O)C(C)O2)C(N(C)C)C1O (stereo unspecified) [Spiramycin]
- scaled lipid accumulation score [3]: inactive: ≤ 0
- scaled lipid accumulation score [2]: inactive: 0.344

SMILES: CCCCC[C@H](O)/C=C/[C@H]1[C@H](O)CC(=O)[C@@H]1C/C=C\CCCC(=O)NCCO [Prostaglandin E2 Ethanolamide]
- scaled lipid accumulation score [1]: inactive: ≤ 0

SMILES: CCCCCCCCCC(=O)NC(CN1CCOCC1)C(O)c1ccccc1 (racemic)
- scaled lipid accumulation score [1]: inactive: ≤ -0.021

SMILES: CN1CCc2ccccc2Cc2[nH]c3ccccc3c2CC1
- scaled lipid accumulation score [2]: inactive: 0.244

SMILES: CC(C)(Sc1cc(C(C)(C)C)c(O)c(C(C)(C)C)c1)Sc1cc(C(C)(C)C)c(O)c(C(C)(C)C)c1 [Probucol]
- scaled lipid accumulation score: inactive: ≤ 0
- scaled lipid accumulation score [3]: inactive: ≤ 0
- scaled lipid accumulation score [2]: inactive: ≤ 0

SMILES: COC(=O)c1sccc1S(=O)(=O)Nc1ccc(Nc2ccccc2)cc1OC
- scaled lipid accumulation score [2]: inactive: ≤ -0.001

SMILES: CCCCCC#CCC#CCCCCCCCC(=O)O [9,12-Octadecadiynoic Acid]
- scaled lipid accumulation score [1]: inactive: 0.001

SMILES: Nc1ccc(-c2nc3ccc(-c4nc5ccc(N)cc5[nH]4)cc3[nH]2)cc1
- scaled lipid accumulation score [2]: inactive: 0.536 and inactive: 0.097

SMILES: CS(=O)(=O)CCNCc1ccc(-c2ccc3ncnc(Nc4ccc(OCc5cccc(F)c5)c(Cl)c4)c3c2)o1
- scaled lipid accumulation score [5]: inactive: ≤ 0
- scaled lipid accumulation score [6]: inactive: ≤ 0 and inactive: 0.144
- scaled lipid accumulation score [7]: inactive: 0.42
- scaled lipid accumulation score [2]: inactive: 0.429

SMILES: Nc1c(Br)cc(Br)cc1CN[C@H]1CC[C@H](O)CC1 [Ambroxol HCl]
- scaled lipid accumulation score [3]: inactive: ≤ 0
- scaled lipid accumulation score [2]: inactive: 0.443

SMILES: Nc1c(Br)cc(Br)cc1CN[C@H]1CC[C@H](O)CC1 [Ambroxol]
- scaled lipid accumulation score [4]: inactive: 0.172

SMILES: Nc1c(Br)cc(Br)cc1CN[C@H]1CC[C@H](O)CC1 [Ambroxol hydrochloride]
- scaled lipid accumulation score: inactive: 0.147
- scaled lipid accumulation score [2]: inactive: ≤ -0.027 and inactive: 0.435

SMILES: Oc1ccc(Cl)c2cccnc12 [Cloxyquin]
- scaled lipid accumulation score [2]: inactive: ≤ 0

SMILES: OCCN1CCN(CCCN2c3ccccc3Sc3ccc(Cl)cc32)CC1 [Perphenazine]
- scaled lipid accumulation score [2]: active: 0.916

SMILES: CCC(=O)c1ccc(O)cc1
- scaled lipid accumulation score [2]: inactive: ≤ 0

SMILES: CC(=O)NCCc1c[nH]c2ccc(O)cc12 [N-Acetyl-5-hydroxytryptamine]
- scaled lipid accumulation score [2]: inactive: 0.055

SMILES: CC(C)Oc1ccc(Cc2ccc(NC3=NCCN3)cc2)cc1
- scaled lipid accumulation score [1]: inactive: 0.221

SMILES: O.O.O.O.O=C([O-])CC(O)(CC(=O)[O-])C(=O)[O-].[Li+].[Li+].[Li+] [Lithium citrate]
- scaled lipid accumulation score (library stock concentration: 9.5 mM): inactive: ≤ 0
- scaled lipid accumulation score [2]: inactive: 0.016

SMILES: O=c1ccc2ccc(O)c(O)c2o1 [Daphnetin]
- scaled lipid accumulation score [3]: inactive: 0.017
- scaled lipid accumulation score [2]: inactive: ≤ 0 and inactive: 0.193

SMILES: N#CC(c1ccc(Cl)cc1)c1c(Cl)cc(-n2ncc(=O)[nH]c2=O)cc1Cl (stereo unspecified) [Diclazuril]
- scaled lipid accumulation score [3]: inactive: ≤ 0
- scaled lipid accumulation score (library stock concentration: 4.9 mM): inactive: ≤ -0.006
- scaled lipid accumulation score [2]: inactive: ≤ 0

SMILES: CN1CCN(c2ccc3nc(-c4c(N)c5c(F)cccc5[nH]c4=O)[nH]c3c2)CC1 [Dovitinib (TKI-258, CHIR-258)]
- scaled lipid accumulation score [3]: active: 1.25
- scaled lipid accumulation score [2]: active: 1.13

SMILES: O=C1Cc2c([nH]c3ccc([N+](=O)[O-])cc23)-c2ccccc2N1 [Alsterpaullone]
- scaled lipid accumulation score [3]: inactive: ≤ 0

SMILES: CC(C)(C)C(=O)OCOP(=O)(COCCn1cnc2c(N)ncnc21)OCOC(=O)C(C)(C)C [Adefovir Dipivoxil]
- scaled lipid accumulation score [3]: inactive: ≤ 0
- scaled lipid accumulation score [2]: inactive: 0.081

SMILES: O=S(=O)(c1cccc2c(I)cccc12)N1CCCNCC1
- scaled lipid accumulation score [5]: inactive: ≤ -0.001
- scaled lipid accumulation score [6]: inactive: ≤ -0.001
- scaled lipid accumulation score [7]: inactive: 0.204

SMILES: O=S(=O)(c1cccc2c(I)cccc12)N1CCCNCC1 [ML-7, Hydrochloride]
- scaled lipid accumulation score [3]: inactive: 0.25

SMILES: CCN(CC)CCOCCOC(=O)C(CC)(CC)c1ccccc1.O=C(O)CC(O)(CC(=O)O)C(=O)O
- scaled lipid accumulation score [2]: active: 0.866

SMILES: Nc1nc(N)c2nc(-c3cccc(O)c3)cnc2n1
- scaled lipid accumulation score [3]: inactive: ≤ 0
- scaled lipid accumulation score [2]: inactive: ≤ 0

SMILES: CCN1C(=O)NC(c2ccccc2)C1=O (stereo unspecified) [Ethotoin]
- scaled lipid accumulation score: inactive: ≤ 0

SMILES: CN1CCC(=C2c3ccccc3CC(=O)c3sccc32)CC1 [Ketotifen fumarate]
- scaled lipid accumulation score: inactive: 0.627
- scaled lipid accumulation score (library stock concentration: 4.7 mM): inactive: 0.276
- scaled lipid accumulation score [2]: inactive: 0.172 and inactive: 0.737

SMILES: CN1CCC(=C2c3ccccc3CC(=O)c3sccc32)CC1 [Ketotifen Fumarate]
- scaled lipid accumulation score [3]: inactive: ≤ 0
- scaled lipid accumulation score [2]: inactive: 0.576

SMILES: CN1CCC(=C2c3ccccc3CC(=O)c3sccc32)CC1
- scaled lipid accumulation score [2]: inactive: 0.593

SMILES: COc1ccccc1N1CCN(CC(O)COc2cccc3ccccc23)CC1 (stereo unspecified)
- scaled lipid accumulation score [2]: inactive: 0.313

SMILES: COc1ccccc1N1CCN(CC(O)COc2cccc3ccccc23)CC1 (stereo unspecified) [Naftopidil DiHCl]
- scaled lipid accumulation score [3]: inactive: ≤ 0
- scaled lipid accumulation score [2]: inactive: ≤ 0

SMILES: COc1ccccc1N1CCN(CC(O)COc2cccc3ccccc23)CC1 (stereo unspecified) [Naftopidil dihydrochloride]
- scaled lipid accumulation score: inactive: ≤ 0
- scaled lipid accumulation score [2]: inactive: 0.725

SMILES: COc1ccccc1N1CCN(CC(O)COc2cccc3ccccc23)CC1 (stereo unspecified) [Naftopidil 2HCl]
- scaled lipid accumulation score (library stock concentration: 5.1 mM): inactive: ≤ -0.006

SMILES: COc1ccccc1N1CCN(CC(O)COc2cccc3ccccc23)CC1 (stereo unspecified) [Naftopidil]
- scaled lipid accumulation score [3]: inactive: ≤ 0
- scaled lipid accumulation score [2]: inactive: 0.03

SMILES: COc1ccccc1N1CCN(CC(O)COc2cccc3ccccc23)CC1 (stereo unspecified) [Naftopidil hydrochloride]
- scaled lipid accumulation score [2]: inactive: 0.409

SMILES: CCCCC/C=C/C/C=C/C/C=C/C/C=C/CCCC(=O)Oc1ccc2ccc(=O)oc2c1 [7-hydroxycoumarinyl Arachidonate]
- scaled lipid accumulation score [1]: inactive: ≤ 0

SMILES: Cc1nnc(-c2ccc3occ(-c4ccc([S+](C)[O-])cc4)c3c2)o1 (stereo unspecified)
- scaled lipid accumulation score [2]: inactive: 0.106

SMILES: COC(=O)c1ccccc1O [Methyl salicylate]
- scaled lipid accumulation score (library stock concentration: 13.1 mM): inactive: ≤ -0.003

SMILES: COc1ccc2c(c1)N(C[C@H](C)CN(C)C)c1ccccc1S2 [Methotrimeprazine maleat salt]
- scaled lipid accumulation score: inactive: 0.642

SMILES: C/C=C1\NC(=O)[C@H]2CSSCC/C=C/[C@H](CC(=O)N[C@H](C(C)C)C(=O)N2)OC(=O)[C@H](C(C)C)NC1=O [Romidepsin (FK228, Depsipeptide)]
- scaled lipid accumulation score [3]: inactive: 0.521
- scaled lipid accumulation score [2]: inactive: 0.472

SMILES: O=C(O)CC[C@H]1CC[C@@](c2cc(F)ccc2F)(S(=O)(=O)c2ccc(Cl)cc2)CC1
- scaled lipid accumulation score [3]: inactive: 0.022
- scaled lipid accumulation score [2]: inactive: ≤ 0

SMILES: CCCCC/C=C\C/C=C\C/C=C\C/C=C\CCCC(=O)OCc1ccsc1
- scaled lipid accumulation score [1]: inactive: ≤ 0

SMILES: CCCN(CCC)C(=O)C(CCC(=O)O)NC(=O)c1ccccc1 (stereo unspecified) [Proglumide]
- scaled lipid accumulation score: inactive: 0.057
- scaled lipid accumulation score (library stock concentration: 6 mM): inactive: ≤ 0
- scaled lipid accumulation score [2]: inactive: ≤ 0 and inactive: ≤ -0.009

SMILES: CO[C@@]1(NC(=O)CSCC#N)C(=O)N2C(C(=O)O)=C(CSc3nnnn3C)CS[C@@H]21 [Cefmetazole sodium salt]
- scaled lipid accumulation score: inactive: ≤ 0

SMILES: CO[C@@]1(NC(=O)CSCC#N)C(=O)N2C(C(=O)O)=C(CSc3nnnn3C)CS[C@@H]21 [Cefmetazole sodium]
- scaled lipid accumulation score [2]: inactive: 0.006 and inactive: ≤ 0

SMILES: CC(C)OC(=O)CCC/C=C/C[C@@H]1[C@@H](/C=C/[C@H](O)CCc2ccccc2)[C@H](O)C[C@@H]1O
- scaled lipid accumulation score [1]: inactive: ≤ 0

SMILES: COc1ccc2[nH]c(I)c(CCNC(C)=O)c2c1 [2-Iodomelatonin]
- scaled lipid accumulation score [2]: inactive: 0.011

SMILES: CN(C)CC(C)(C)CNc1nn2c(-c3ccccc3)nnc2cc1C1CCC1
- scaled lipid accumulation score [6]: inactive: ≤ -0.005
- scaled lipid accumulation score [7]: inactive: ≤ -0.005
- scaled lipid accumulation score [2]: inactive: 0.159

SMILES: O=c1cc(N2CCOCC2)oc2c1ccc1ccccc12 [DNA-PK Inhibitor II]
- scaled lipid accumulation score [3]: inactive: ≤ 0

SMILES: O=c1cc(N2CCOCC2)oc2c1ccc1ccccc12
- scaled lipid accumulation score [5]: inactive: ≤ 0
- scaled lipid accumulation score [6]: inactive: ≤ 0
- scaled lipid accumulation score [7]: inactive: ≤ 0
- scaled lipid accumulation score [2]: inactive: ≤ 0 and inactive: 0.033

SMILES: CCOC(=O)C(C)(C)Oc1ccc(Cl)cc1 [Clofibrate]
- scaled lipid accumulation score [1]: inactive: 0.089
- scaled lipid accumulation score [2]: inactive: ≤ 0

SMILES: c1cnc2c(c1)ccc1cccnc12 [1,10-Phenanthroline monohydrate]
- scaled lipid accumulation score [2]: inactive: 0.15
